Consider 59 compounds from PubChem BioAssay AID463173 (ICCB-Longwood Screening Facility, Harvard Medical School, 2010).

Out of some 52,000 compounds screened, about 4,300 (8.3%) were called active. Cut-off read from the data, not from the text of the source: active = survival mostly below about 52% (no sharp cut-off); inactive = mostly above about 56%. Some of the results follow.

The assay has as its system DeltatarO mutant. As to the kind of experiment: S. aureus survival, RN4220 and DeltatarO strains – OD600, teichoic acid synthesis inhibitors, primary screen (AID 463173). The following applies: S. aureus RN4220 wild type/DeltatarO growth, OD600, 18 h, active compounds read low, screened at 18.75 µg/mL (by protocol).
Consider `COc1ccc(COC(=O)c2[nH]c3c(c2C)C(=O)CC(c2ccc(OC)c(OC)c2)C3)cc1` (centres undefined), for which the survival is inactive: 80%.
Regarding `CC1CCCC(C)N1C(=O)Cn1c(SCC(=O)NCc2ccco2)nc2ccccc21` (centres undefined), the survival was inactive: 82%.
With `CCOc1ccccc1NC(=O)CC1C(=O)NCCN1C(=O)c1ccc(F)cc1` (centres undefined) the figure was inactive: 91%.
Then `CCC(C(=O)O)C(C)CC(=O)Nc1ccccc1Cl` (centres undefined), with inactive: 81%; and `COc1ccc(OC)c(Nc2nc3ccccc3n3c(C)nnc23)c1`, with inactive: 101%; and `Cc1ccc(-n2ncc(C(=O)NC3CCCC3)c2C2CCN(C(=O)OC(C)(C)C)CC2)c(C)c1`, with inactive: 70%.
For `CS(=O)(=O)c1ncc(N(Cc2ccco2)Cc2ccco2)c(C(=O)Nc2ccccc2Br)n1`, the survival was inactive: 53%.
With `CC1=C(C(=O)OCc2ccc(C)cc2)C(c2c(Cl)cccc2Cl)CC(=O)N1` (centres undefined), the survival was inactive: 70%.
Regarding `Cc1ccc(C)c(NS(=O)(=O)c2ccc3c4c(cccc24)C(=O)N3)c1`, the survival was active: 52%.
As for `CNc1nc(Oc2ccc(=O)n(C)n2)nc(N2CCOCC2)n1`, the survival is inactive: 79%.
As to `COCCCNC(=O)c1cc2n(n1)CCCN(Cc1ccc(C)cc1)C2=O`, the survival is inactive: 84%.
Then `Cc1cccc(-c2nc3ccccc3o2)c1`, with inactive: 79%.
With `COc1ccccc1-c1c(C)nn2c(N3CCN(c4cccc(Cl)c4)CC3)cc(C)nc12` the figure was inactive: 58%; with `Cc1c(NS(=O)(=O)c2cccc(C(=O)O)c2)c(=O)n(-c2ccccc2)n1C`, inactive: 67%.
Then `COc1ccc(OC)c(NC(=O)c2cc3c(s2)-c2ccccc2SC3)c1`, with inactive: 65%; and `O=C1NCCCC1C(=O)Nc1ccncc1` (centres undefined), with inactive: 113%; and `O=C(N=C1SCC(=O)N1c1ccccc1)c1ccco1`, with inactive: 62%.
Take `CCC(=O)N1c2ccccc2CC1C(=O)NCc1ccccc1C` (centres undefined): the survival was inactive: 125%.
As for `O=C(CSc1nnc(CNC(=O)c2c(F)cccc2Cl)o1)Nc1ccccc1F`, the survival was inactive: 107%.
Then `COc1ccc(CNn2cnnc2)c(O)c1`, with inactive: 97%.
With `Cc1coc2c1c(C)cc1oc(=O)cc(C)c12` the figure was inactive: 65%.
Turning to `CC(C)OCCCNC(=O)c1ccc2c(=O)n(CCc3ccccc3)c(=O)[nH]c2c1`, the survival was inactive: 78%.
Turning to `Cc1oc(-c2cccc(Cl)c2)nc1CN1CCCC(C(=O)NCc2ccc(F)cc2)C1` (centres undefined), the survival was inactive: 52%.
With `COc1ccc(-c2nnc(SCC(=O)Oc3c(C)cccc3C)o2)cc1OC` the figure was inactive: 102%; with `CCCCN(C)C(=O)C(Cc1ccccc1)NS(=O)(=O)c1ccc2c(c1)c(=O)n(C)c(=O)n2C` (centres undefined), inactive: 110%.
As for `C=CCc1cccc2cc(C(=O)Nc3cccc(Cl)c3)c(=O)oc12`, the survival was inactive: 79%.
Then `Cc1cccc(C(=O)NCCc2sc(-c3ccccc3)nc2C)c1`, with inactive: 79%; and `CC(=O)c1c(C)oc2ccc(N(C(=O)Oc3ccccc3)S(=O)(=O)c3ccc(C(C)(C)C)cc3)cc12`, with inactive: 128%.
Then `CC(Sc1nnc2c(n1)[nH]c1ccccc12)C(=O)NC(C)(C)C` (centres undefined), with inactive: 64%; and `CC(=O)Oc1cn(C(C)=O)c2ccccc12`, with inactive: 110%; and `COc1ccc(C)cc1NC(=O)CN(c1cc(C(F)(F)F)ccc1Cl)S(C)(=O)=O`, with inactive: 60%.
Then `CCc1cccc(C)c1NC(=O)c1cc(C)nc2c1c(C)nn2-c1cccc(Cl)c1C`, with inactive: 88%; and `O=C(COc1ccc(Cl)cc1Cl)NC1CCSC1=O` (centres undefined), with inactive: 87%; and `COc1cc(NC(=O)c2cc(Cl)c(OC)c(Cl)c2)ccc1NC(=O)c1cc2ccccc2o1`, with inactive: 82%.
In the case of `CN(C)C(=O)Cn1nc(-c2ccccc2)c2ccccc2c1=O`, the survival is inactive: 92%.
As to `CCC(C)NC(=O)c1ccc(-n2c(-c3ccccc3)cc3c2CCCC3)cc1` (centres undefined), the survival is inactive: 112%.
For the compound `COC(=O)c1cc(NC(=O)Cn2nc(C)n3cccc3c2=O)cc(C(=O)OC)c1`, the survival was inactive: 87%.
Then `Cc1ccccc1CNC(=O)c1ccc(-c2nc(CS(=O)(=O)c3ccccc3)c(C)o2)cc1`, with inactive: 60%.
With `CCOC(=O)C1=C(CS(=O)(=O)c2ccc(Br)cc2)NC(=O)NC1c1ccccc1` (centres undefined) the figure was inactive: 80%.
Then `CCc1nn2c(=O)c(S(=O)(=O)Nc3ccc(OC)c(Cl)c3)c(C)nc2s1`, with inactive: 64%; and `Cc1ccc(CSc2nc3ccc(NC(=O)C(C)C)cc3s2)cc1`, with inactive: 87%; and `O=C(NCC(c1cccnc1)N1CCN(Cc2ccccc2)CC1)C(=O)Nc1ccc(Cl)cc1` (centres undefined), with inactive: 85%.
Turning to `COc1ccc(C(CC(=O)Nc2ccc(C)c(C)c2)N2Cc3ccccc3C2=O)cc1OC` (centres undefined), the survival was inactive: 80%.
Then `Cc1cc(OC(=O)c2cc(-c3ccc4c(c3)OCCO4)on2)ccc1Cl`, with active: -1%; and `COc1ccc2c(c1)-c1nc(NC(=O)c3cc(Cl)ccc3OC)sc1CC2`, with inactive: 69%.
With `CN1c2ccccc2-c2nc(SCC(=O)Nc3ccccc3C(F)(F)F)ncc2S1(=O)=O` the figure was inactive: 95%.
Then `COc1ccc(OC)c(NC(=O)c2c(NCc3ccc(C)o3)sc3c2CCC(C)C3)c1` (centres undefined), with active: 52%; and `COc1ccc(C(=O)NCc2ccc3c(c2)CCN3C(=O)c2ccncc2)cc1`, with inactive: 88%.
On to `Cc1ccc(CSCC(=O)N2CCN(c3ccc(F)cc3)CC2)cc1`, for which the survival was inactive: 70%.
With `CC(C)c1ccc(S(=O)(=O)c2nnn3c2nc(NC2CCCC2)c2sccc23)cc1` the figure was inactive: 65%; with `Cc1ccc2c(=O)cc(CSc3ccccc3)[nH]c2c1C`, inactive: 85%.
With `Cc1nc(CC(=O)Nc2cccc(C)c2C)cs1` the figure was active: 39%.
Then `CC(=O)c1cccc(S(=O)(=O)NCCc2csc3nc(-c4ccc(F)cc4)nn23)c1`, with inactive: 88%.
For `O=C1CCC(C2CCC(=O)N2)N1` (centres undefined), the survival was inactive: 104%.
Then `O=C(CSc1nc(-c2ccccc2)nc2c1CCCC2)c1ccc(F)cc1`, with inactive: 83%; and `CCC(=O)N1c2ccc(S(=O)(=O)NCc3cccc(OC)c3)cc2CC1C` (centres undefined), with inactive: 67%; and `Cc1ccc(S(=O)(=O)c2nc(-c3ccco3)oc2SC(C)c2ccccc2)cc1` (centres undefined), with active: 45%.
Then `COc1cc(NC(=O)CCc2c(C)nc3nc(-c4cc(OC)cc(OC)c4)nn3c2C)cc(OC)c1`, with inactive: 83%; and `CCCCN(CC)CCNC(=O)c1cc2c(-c3ccc(Cl)cc3)nn(C)c2s1`, with inactive: 59%.
